Results as given in patent publication US20070249022A1 (ACCELERON PHARMA, published 2007).

Molecular target: T1, GDF-11 (UniProt O95390 299-407)
T1 sequence (looked up): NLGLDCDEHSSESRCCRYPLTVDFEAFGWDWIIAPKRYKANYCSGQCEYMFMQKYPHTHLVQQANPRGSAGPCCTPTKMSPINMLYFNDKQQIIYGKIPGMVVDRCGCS
Test: cell-based or functional assay

B1: ActRIIa-hFc (Fc fusion)
chain: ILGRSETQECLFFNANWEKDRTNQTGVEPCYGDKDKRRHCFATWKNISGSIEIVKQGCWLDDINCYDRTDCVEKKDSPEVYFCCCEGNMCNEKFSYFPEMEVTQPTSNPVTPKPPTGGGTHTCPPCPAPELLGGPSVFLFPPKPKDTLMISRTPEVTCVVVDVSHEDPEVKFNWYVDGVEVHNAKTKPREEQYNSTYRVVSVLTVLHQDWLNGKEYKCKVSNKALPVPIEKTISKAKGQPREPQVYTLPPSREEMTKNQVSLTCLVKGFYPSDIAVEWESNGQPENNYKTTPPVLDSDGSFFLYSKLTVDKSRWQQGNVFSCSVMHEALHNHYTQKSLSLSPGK
  IC50 of inhibition of GDF-11 signaling, A-204 Reporter Gene Assay (pGL3(CAGA)12 luciferase): ~200 pM
